Reference: the supplement of paper PMC3334620
The full ranking holds about 33,000 sequences; the median of “E-score (-0.5 to 0.5)” is about -0.032, and the highest 2% start at about 0.36. This is one part of the list.

Target: T1, Sko1 (UniProt Q02100)
T1 sequence: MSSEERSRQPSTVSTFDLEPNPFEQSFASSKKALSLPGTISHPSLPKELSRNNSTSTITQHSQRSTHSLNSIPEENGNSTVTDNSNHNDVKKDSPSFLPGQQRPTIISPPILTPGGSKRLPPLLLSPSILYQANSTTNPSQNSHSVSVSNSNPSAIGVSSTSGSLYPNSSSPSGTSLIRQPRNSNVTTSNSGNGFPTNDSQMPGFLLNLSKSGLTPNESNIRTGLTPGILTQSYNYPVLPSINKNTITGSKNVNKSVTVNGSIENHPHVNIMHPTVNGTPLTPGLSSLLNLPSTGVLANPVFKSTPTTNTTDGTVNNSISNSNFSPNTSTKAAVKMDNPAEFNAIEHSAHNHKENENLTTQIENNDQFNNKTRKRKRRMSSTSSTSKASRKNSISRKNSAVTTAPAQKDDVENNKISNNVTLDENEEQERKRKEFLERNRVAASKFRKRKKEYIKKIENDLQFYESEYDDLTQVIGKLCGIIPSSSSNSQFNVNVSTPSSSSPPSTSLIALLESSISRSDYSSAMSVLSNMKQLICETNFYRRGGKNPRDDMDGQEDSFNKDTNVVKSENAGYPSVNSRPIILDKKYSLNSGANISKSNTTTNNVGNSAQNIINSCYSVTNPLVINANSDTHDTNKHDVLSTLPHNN
Assay: PBM E-score (8-mer binding enrichment) (E-score (-0.5 to 0.5)); higher = stronger / more preferred TF binding; most listed sequences are background and not binding sites
Settings: protein concentration: 200 nM; construct: GST-full length
Summary of the method: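 Full-length yeast transcription factors or their DNA-binding domains, GST-tagged and expressed with PURExpress, were applied at about 100-200 nM to universal all-10-mer Agilent arrays. These arrays had been made double-stranded by primer extension on fresh or once-stripped slides. Detection used fluorescent anti-GST, normalisation used masliner, and E-scores for ungapped eight-base words pooled with reverse complements came from the Universal PBM Analysis Suite.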

Row | Sequence | PBM E-score
1 | ACCCGATG | -0.166
2 | GCACAGCC | -0.408
3 | CCAAACGC | -0.0857
4 | TGGGTAAA | 0.00575
5 | CGGCGACA | -0.288
6 | ACGTTGTG | 0.311
7 | AATGGGAG | -0.0434
8 | GACTCCGA | -0.232
9 | GAGAAATC | 0.0021
10 | ACGTCTCC | 0.322
11 | AATAAACA | 0.258
12 | AGGTGGGA | -0.261
13 | ACCGCTGA | -0.105
14 | GGCATATA | 0.177
15 | GTTCCAAA | 0.0762
16 | CTAGGGTA | -0.161
17 | ACCTCGAC | -0.0495
18 | AATCGGTG | 0.0141
19 | AATAGCAG | -0.195
20 | AGGACACC | -0.242
21 | ATTCTATC | 0.119
22 | GATCATGC | -0.0693
23 | CGCTAGCG | -0.26
24 | CAGGGGTA | -0.351
25 | AACCTTGT | -0.166

Row | Sequence | PBM E-score
26 | ACCACTAG | -0.00471
27 | ACCGTCAT | 0.378
28 | CGGCCCAG | -0.393
29 | CCTCGACG | 0.0174
30 | TCTTCCCA | -0.252
31 | AAGATGCT | -0.0361
32 | GCGACAGC | -0.265
33 | AAGAATGA | 0.299
34 | CCCGTCCG | -0.305
35 | CCAATCCA | -0.214
36 | ACTCCAGC | -0.326
37 | GACTCCCC | -0.279
38 | GCGGCGTA | -0.0389
39 | AACCCCAC | -0.209
40 | AACCCCAT | -0.219
41 | CAAGCACG | 0.188
42 | ACATGGCA | 0.033
43 | ACATTGTG | 0.0594
44 | AAACACGG | 0.0417
45 | ACGCGAAG | 0.122
46 | AGAGGGGG | -0.379
47 | ATTAATTA | 0.218
48 | AGGAGTGA | 0.0137
49 | AAACTACC | 0.0275
50 | CGTTTCGA | 0.0568

Row | Sequence | PBM E-score
51 | ACGTGGCC | 0.32
52 | CAACCCGA | 0.002
53 | GTAGGAAA | -0.0388
54 | GCTCCGTA | -0.033
55 | CATTCAAA | 0.163
56 | AGCTCCCG | -0.224
57 | ATATATAC | 0.277
58 | ATGCAACA | 0.174
59 | CACAGTCG | -0.151
60 | TATATCCA | 0.213
61 | AACCAGGG | -0.229
62 | GTGTCAAC | 0.0369
63 | AGAATTTG | 0.0595
64 | AAAGCTGG | -0.11
65 | AACCCAGC | -0.247
66 | GCCTATAA | -0.0696
67 | GCGGACAC | -0.147
68 | GCCTCAGA | -0.148
69 | CAACCCCG | -0.188
70 | CGAACTCC | 0.113
71 | AATTGTCT | 0.0109
72 | AGGGTTGG | 0.0955
73 | CAATTTTA | 0.196
74 | TACCGATA | -0.0394
75 | TGGAACAA | 0.12

Row | Sequence | PBM E-score
76 | CTTCGCAC | 0.0556
77 | AGTTACGG | -0.0826
78 | AATGCGCA | 0.146
79 | GTCTCATA | 0.00926
80 | CAGACAGC | -0.322
81 | GTGCGTAA | 0.418
82 | ACAAGAGC | -0.118
83 | ATGTATTG | 0.196
84 | AATTCCTG | -0.136
85 | AACAATAC | 0.297
86 | TCACCACA | 0.00618
87 | ATTACAAA | 0.234
88 | CAGGTATC | -0.128
89 | CATTTTTC | 0.162
90 | AGACCCTA | 0.0138
91 | CAAGCCAC | -0.276
92 | AAGTCTTC | -0.0255
93 | AAATACGC | 0.315
94 | ATTCAGCG | 0.046
95 | ACAATTCG | 0.124
96 | AGATGTTC | -0.0104
97 | GACCCACA | -0.0663
98 | AAATCCGC | -0.298
99 | CGGCACAA | -0.17
100 | ATACGAAA | 0.346

Row | Sequence | PBM E-score
101 | CCGCCCGA | -0.261
102 | AAATCGAG | -0.0106
103 | ACCAGGGG | -0.361
104 | GGTTTGTA | -0.116
105 | ACTAATAC | 0.223
106 | CGGCCTTC | -0.223
107 | CCATGTAC | 0.14
108 | CGCTGCAC | 0.00423
109 | GCCGTAAC | -0.0523
110 | CTGTTAAA | 0.25
111 | CAGCCGGA | -0.00661
112 | AATACTGC | 0.0392
113 | ACGGCACC | -0.17
114 | GCCCACAA | -0.221
115 | ACTCCTTA | -0.222
116 | CATTCCTA | 0.011
117 | TCGAATCA | 0.0949
118 | AAGTATAA | 0.0788
119 | GTGCCGCA | 0.0521
120 | TCATTCCA | 0.106
121 | AGCTCGAA | -0.0586
122 | TCGAGGCA | -0.0108
123 | CAATGGCG | 0.0434
124 | AAAAGCGC | 0.0181
125 | GAAATGGC | 0.00268

Row | Sequence | PBM E-score
126 | ATTGTCAA | 0.00012
127 | AACTAACC | 0.111
128 | ACCTAAGT | 0.0547
129 | CGAGAGCC | -0.233
130 | CAGTTACC | -0.18
131 | GATAAATC | -0.0497
132 | ACGGGACT | -0.12
133 | TCCCTCCA | -0.243
134 | ACGCCGCA | -0.0247
135 | CAGCGGTA | -0.101
136 | CATAGAAG | -0.0121
137 | AGCCTAGA | -0.3
138 | AATTGACA | 0.0128
139 | CGTAGGGC | 0.114
140 | ACGCTTCT | -0.0786
141 | CCCGTACA | -0.273
142 | GATAGCTA | -0.133
143 | CGACTGAC | 0.089
144 | CAAATATC | 0.109
145 | GTACCAGA | -0.0638
146 | TGGTTTAA | 0.17
147 | ATCTCGTG | -0.0602
148 | ATTCCCCC | -0.217
149 | ATCACTCC | -0.0415
150 | ATACGCAG | 0.296

Row | Sequence | PBM E-score
151 | CACGCCCC | -0.295
152 | GCCAACAC | 0.025
153 | GAGCTGGA | -0.211
154 | GTGCAGTA | -0.26
155 | CAATCTTC | 0.0427
156 | AGATAGCG | 0.136
157 | AACGACCG | -0.162
158 | AGTAAATA | 0.13
159 | ATCTCTGC | -0.108
160 | CGACGCTC | -0.0536
161 | GTTTGCAA | 0.133
162 | AGGTTGTC | -0.167
163 | CTGGGCCC | -0.232
164 | CTACGAGC | -0.0339
165 | CCTAGTCG | -0.116
166 | ATATTTTC | 0.0908
167 | ACGCTGTC | -0.0328
168 | AAGGCCTC | -0.153
169 | ACTCAAGA | -0.0785
170 | CTGCACAC | -0.129
171 | CGATTCGA | 0.0224
172 | CCGCGCAA | -0.0639
